Measured values taken from paper PMC7392005.
Substitutions are numbered along the chain they refer to. Results are given in words; binding and its absence hold for the method and conditions named. For some assays here: Binding seen in cells or lysates may run through a third protein. Some entries that bind do so weakly or less than the wild type. For some assays here: Sequences can lack the tags named with a protein. One block for each substance: values may come before it.

By UniProt entry, the sequences of proteins in these tests, tags left out. Where a name states a change or a piece, a line headed by the entry shows the natural chain unless it says otherwise.
UniProt Q04206: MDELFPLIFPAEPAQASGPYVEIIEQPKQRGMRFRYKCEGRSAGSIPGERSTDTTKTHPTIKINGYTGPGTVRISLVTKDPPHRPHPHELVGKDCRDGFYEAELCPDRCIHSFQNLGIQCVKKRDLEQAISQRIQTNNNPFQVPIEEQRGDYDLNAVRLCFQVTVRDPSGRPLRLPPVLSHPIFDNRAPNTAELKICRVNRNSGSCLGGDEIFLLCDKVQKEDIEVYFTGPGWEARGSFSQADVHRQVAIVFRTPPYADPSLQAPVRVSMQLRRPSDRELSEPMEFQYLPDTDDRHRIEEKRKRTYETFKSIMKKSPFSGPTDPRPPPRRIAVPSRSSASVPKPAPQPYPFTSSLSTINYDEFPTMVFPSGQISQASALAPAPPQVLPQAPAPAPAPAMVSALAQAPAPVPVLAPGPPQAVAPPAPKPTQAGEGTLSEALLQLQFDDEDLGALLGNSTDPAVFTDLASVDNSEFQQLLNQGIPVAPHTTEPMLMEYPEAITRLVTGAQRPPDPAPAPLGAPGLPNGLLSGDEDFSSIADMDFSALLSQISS

Tests used:
[1] = biological target: T1, HA-tagged FBP1 (fructose-1,6-bisphosphatase 1), wild type (UniProt P09467); experiment: co-IP; 293T cells transfected with HA-, Flag- or GFP-tagged proteins; IP buffer 50mM Tris-HCl pH 7.5, 150mM NaCl, 0.5% NP40; IP with anti-HA or anti-Flag and protein A/G agarose overnight at 4℃; immunoblot
T1 sequence: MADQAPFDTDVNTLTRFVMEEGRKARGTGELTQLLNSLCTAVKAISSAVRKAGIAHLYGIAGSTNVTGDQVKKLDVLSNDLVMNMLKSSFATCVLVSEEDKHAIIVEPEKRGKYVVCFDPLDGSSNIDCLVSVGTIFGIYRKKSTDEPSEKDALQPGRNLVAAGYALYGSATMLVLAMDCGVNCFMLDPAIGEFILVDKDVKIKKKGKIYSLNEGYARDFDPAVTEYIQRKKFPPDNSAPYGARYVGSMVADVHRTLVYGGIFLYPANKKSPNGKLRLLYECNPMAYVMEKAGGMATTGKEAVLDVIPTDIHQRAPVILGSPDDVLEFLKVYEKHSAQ

[2] = biological target: T2, HA-tagged FBP1 S144D (UniProt P09467); experiment: as above
T2 sequence: T1 sequence with S144D

[3] = biological target: T3, FBP1 (construct and source not shown: bait of the screen, Figures S2C, S2D and S3C) (UniProt P09467); experiment: immunoaffinity purification (screen with FBP1 as bait); FBP1 as bait to screen for interaction partners; details not shown
T3 sequence: T1 sequence

[4] = biological target: T4, endogenous FBP1 of MCF-7 cells (human (endogenous in MCF-7)) (UniProt P09467); experiment: co-IP; endogenous proteins of MCF-7 cell lysate; IP with anti-FBP1, anti-PIM2 or anti-p65; IP buffer 50mM Tris-HCl pH 7.5, 150mM NaCl, 0.5% NP40; immunoblot
T4 sequence: T1 sequence

binding [1]: binds
binding [2]: no binding
Substance: Flag-tagged NF-κB p65 (from UniProt Q04206 1-551)

binding [1]: binds
Substance: GFP-tagged p65 DNA-binding domain (1-292aa) (from UniProt Q04206 1-292) (domain or fragment)

binding [3]: binds
Substance: NF-κB p65 (construct and source not shown: hit of the screen, Figure S2B) (from UniProt Q04206 1-551)

binding [4]: binds
Substance: endogenous NF-κB p65 of MCF-7 cells (from UniProt Q04206 1-551)
